This is an account of results in paper PMC6212790.

The list shows a part of the results. At the low end of the ranking the order means little.

The assay has as its target T1, GST-Rok (full length) (UniProt O34857).
T1 sequence: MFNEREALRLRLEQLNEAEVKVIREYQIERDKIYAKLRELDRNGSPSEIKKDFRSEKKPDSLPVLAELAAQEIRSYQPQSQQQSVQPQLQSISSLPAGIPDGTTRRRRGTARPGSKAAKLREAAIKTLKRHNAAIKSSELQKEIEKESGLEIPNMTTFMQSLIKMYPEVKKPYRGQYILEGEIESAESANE
Kind of assay: protein binding microarray.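 Note: rank score from −0.5 (least bound) to 0.5 (best bound).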 The note with it: Rok is a gene silencer of Bacillus subtilis; high values mean tight binding; most listed sequences are background and not binding sites; double strand, one strand shown.
As to AAAGGAGG, the binding signal is -0.252 E-score. GACCCATA had a binding signal of -0.0594 E-score. The figure for ACCATTCT is 0.117 E-score; for AGCGGCAT it is 0.0125 E-score. Under CGATAAAA stands 0.2 E-score.

In turn, AAGACTAG had a binding signal of 0.182 E-score. The figure for ATTTACTA is 0.459 E-score; for AGTTGTTA it is 0.28 E-score; for AATACAGT it is 0.134 E-score.

On to AGAACTTA, for which the binding signal stood at 0.108 E-score. Under CTCGGACC stands -0.195 E-score; under GCTCAGCA, -0.208 E-score; under CAGCTGTA, 0.0605 E-score. Under CTAGAGAC stands -0.0944 E-score; under TGAAATCA, -0.119 E-score; under ATGACCCG, -0.204 E-score. The figure for GCGGCCCA is -0.286 E-score; for ACTCTGTC it is -0.00833 E-score; for AATGCACA it is 0.194 E-score.

The sequence AGAATATC yielded a binding signal of 0.235 E-score. Regarding AATTTTAT, the binding signal stood at 0.273 E-score.

Consider CCATTTCG, for which the binding signal worked out at 0.14 E-score. Under CCAACTCG stands 0.0115 E-score; under TCATAGCA, 0.124 E-score. Under CCTCTCTA stands -0.198 E-score. The figure for CCTGGTAC is -0.125 E-score; for AAACCGTG it is -0.0444 E-score; for CACAAGCC it is -0.252 E-score.

On to GTATTAAC, for which the binding signal came to 0.306 E-score. Under TAGTTCGA stands 0.304 E-score; under TATATACA, 0.409 E-score.

Consider ACGATAAA, for which the binding signal stood at 0.125 E-score.

AGTGGCAA gave a binding signal of 0.121 E-score. Under CATATCGC stands 0.0296 E-score. The figure for TAAAGTGA is -0.0576 E-score; for CGCATCTA it is 0.176 E-score; for ACCTTACG it is 0.0118 E-score.

For the sequence CACGCGCA, the binding signal was -0.0652 E-score.

In the case of ATAGCCTG, the binding signal was -0.114 E-score.

Sequence CCATATTA displayed a binding signal of 0.165 E-score.

Consider GTCGCTGA, for which the binding signal is -0.114 E-score. Under GCTAGGAA stands -0.0893 E-score; under CAAATGAC, -0.0653 E-score; under AAAGCCGC, -0.123 E-score. The figure for CATGCAGC is -0.295 E-score; for AAGCGCCC it is -0.27 E-score. The figure for CAAAGTCC is -0.187 E-score; for AGACGCTA it is 0.0167 E-score; for AATGACTC it is 0.0144 E-score. CGACGAAG yielded a binding signal of -0.102 E-score.

AGGGGGCC gave a binding signal of -0.37 E-score.

As to AGACCTTA, the binding signal is -0.0393 E-score.

AGCGATTG gave a binding signal of -0.233 E-score.

ATGTCTTA came in with a binding signal of 0.15 E-score. Sequence AACCCTGC came in with a binding signal of -0.208 E-score. The figure for GCCGAACA is -0.21 E-score; for ACATTTAC it is 0.313 E-score; for GCAGGTTA it is -0.111 E-score. On to AAAGGACG, for which the binding signal was -0.149 E-score.

CAGGAATC: the binding signal was -0.103 E-score.

Consider TCGAGTAA, for which the binding signal is 0.229 E-score. For the sequence CCGAGACG, the binding signal is -0.232 E-score. For the sequence CAGACTGA, the binding signal is -0.28 E-score. The figure for AGAGAGGA is -0.127 E-score. Under ATGGATCC stands -0.144 E-score; under GGCAGAAA, 0.149 E-score. Under TGAATAAA stands -0.0237 E-score. In the case of CATTAGAC, the binding signal was found to be 0.00419 E-score. Under ATACGTCG stands 0.19 E-score; under GGCCACCC, -0.269 E-score; under CTCAAAAC, 0.114 E-score. Under AAATCAAG stands 0.0466 E-score; under TCATTTAA, 0.0863 E-score; under TACATATA, 0.347 E-score. The figure for CCCACAAA is 0.0704 E-score; for TAATACAA it is 0.292 E-score; for CATGCTCG it is -0.0311 E-score. Sequence TGTACAAA showed a binding signal of 0.298 E-score. Under AGGGTGAT stands -0.196 E-score. The figure for AGAGAGGG is -0.274 E-score; for ATACCCAA it is 0.175 E-score; for AATTTGAT it is 0.218 E-score. Under GCTGCCAC stands -0.293 E-score; under AATTTTAC, 0.355 E-score.

Sequence ATAGGGGA returned a binding signal of -0.193 E-score. The figure for AGTCATAT is 0.12 E-score; for AGATACTC it is 0.155 E-score.

Consider AAACGGTC, for which the binding signal was -0.0754 E-score.

In turn, GCCGCTCA yielded a binding signal of -0.181 E-score. The figure for CTTCGGAC is -0.193 E-score; for AGGAACTC it is -0.176 E-score.

Turning to AACCGAGC, the binding signal is -0.237 E-score.

In turn, GAGCCGAC yielded a binding signal of -0.322 E-score. Under GAACCCAC stands -0.132 E-score; under AGGAGTTG, -0.227 E-score. Under CATAACAA stands 0.204 E-score. As for CACTGGGG, the binding signal is -0.3 E-score. The figure for AAGCTACT is 0.192 E-score.

In the case of CGGGTCCC, the binding signal is -0.238 E-score. The figure for ACATGTTA is 0.242 E-score; for CCGCTTGC it is -0.0959 E-score; for AAGCAGTA it is 0.136 E-score.

The sequence CAACTTAG came in with a binding signal of 0.125 E-score. Turning to ATCCACCC, the binding signal is -0.015 E-score.

Consider GAGCTAAA, for which the binding signal was -0.0123 E-score. The figure for GAGTATGC is -0.0101 E-score; for CACAAAGC it is 0.0266 E-score; for GATGGACA it is -0.171 E-score. The sequence CACACAGC yielded a binding signal of 0.127 E-score. In turn, CCGTAGAG displayed a binding signal of -0.0885 E-score.
